The source of these data is PMC12107103 (Proceedings of the National Academy of Sciences of the …, 2025).

This assay deals with T1, Protein Arginine Methyltransferase-5 (human, UniProt O14744).
T1 construct: PRMT5 (Protein Arginine Methyltransferase-5), as crystallised in the PRMT5/MEP50 complex with MTA and AM-9934; also called PRMT5; source: baculovirus expression system, as PRMT5/MEP50 protein complex, according to literature procedures (26)
Nature of the assay: crystal structure; PRMT5/MEP50 protein complex at 13.5 mg/mL mixed with MTA and AM-9934 (1:1.2:1.2), sitting drop vapor diffusion at 8 °C; 3.1 Å resolution. The note with it: both partners purified.

Protein Arginine Methyltransferase-5, sequence (O14744 whole entry, the tested form may be a part): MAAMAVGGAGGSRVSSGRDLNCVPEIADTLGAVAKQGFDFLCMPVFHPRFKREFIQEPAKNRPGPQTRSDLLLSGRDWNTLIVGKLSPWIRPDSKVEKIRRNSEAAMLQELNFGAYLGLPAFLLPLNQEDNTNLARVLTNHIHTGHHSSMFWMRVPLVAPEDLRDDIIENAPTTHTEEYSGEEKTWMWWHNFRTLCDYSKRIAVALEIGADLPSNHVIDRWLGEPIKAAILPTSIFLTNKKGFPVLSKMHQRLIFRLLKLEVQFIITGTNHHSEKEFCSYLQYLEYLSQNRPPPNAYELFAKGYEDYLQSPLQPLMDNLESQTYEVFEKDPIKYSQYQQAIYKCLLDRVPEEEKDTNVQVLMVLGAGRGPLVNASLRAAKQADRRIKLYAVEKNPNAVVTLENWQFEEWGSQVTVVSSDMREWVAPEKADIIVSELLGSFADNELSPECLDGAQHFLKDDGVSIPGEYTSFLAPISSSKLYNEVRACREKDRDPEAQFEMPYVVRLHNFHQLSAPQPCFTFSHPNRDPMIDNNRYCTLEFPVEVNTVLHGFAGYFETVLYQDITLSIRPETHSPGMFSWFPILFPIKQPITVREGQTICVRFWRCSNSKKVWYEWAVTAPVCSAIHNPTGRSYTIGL

B1: methylosome protein 50 (natural protein)
chain: not shown
notes: MEP50 (methylosome protein 50), as crystallised in the PRMT5/MEP50 complex with MTA and AM-9934; also called MEP50; source: baculovirus expression system, as PRMT5/MEP50 protein complex, according to literature procedures (26)
Regarding B1, the binding result is on record as “binds”.
